Test results taken from PubChem BioAssay AID360 (National Center for Advancing Translational Sciences (NCATS), 2006).
About 550 (1.1%) of roughly 48,000 compounds were called active. Roughly 4% stayed inconclusive and do not appear here. Cut-off read from the data, not from the text of the source: active = potency below about 15 µM; inconclusive = mostly about 16 µM to 33 µM; inactive = weaker than that. Some of the results follow.

Target: Lysosomal acid glucosylceramidase (Homo sapiens) (UniProt P04062)
Sequence of UniProt P04062 (P04062 whole entry, looked up): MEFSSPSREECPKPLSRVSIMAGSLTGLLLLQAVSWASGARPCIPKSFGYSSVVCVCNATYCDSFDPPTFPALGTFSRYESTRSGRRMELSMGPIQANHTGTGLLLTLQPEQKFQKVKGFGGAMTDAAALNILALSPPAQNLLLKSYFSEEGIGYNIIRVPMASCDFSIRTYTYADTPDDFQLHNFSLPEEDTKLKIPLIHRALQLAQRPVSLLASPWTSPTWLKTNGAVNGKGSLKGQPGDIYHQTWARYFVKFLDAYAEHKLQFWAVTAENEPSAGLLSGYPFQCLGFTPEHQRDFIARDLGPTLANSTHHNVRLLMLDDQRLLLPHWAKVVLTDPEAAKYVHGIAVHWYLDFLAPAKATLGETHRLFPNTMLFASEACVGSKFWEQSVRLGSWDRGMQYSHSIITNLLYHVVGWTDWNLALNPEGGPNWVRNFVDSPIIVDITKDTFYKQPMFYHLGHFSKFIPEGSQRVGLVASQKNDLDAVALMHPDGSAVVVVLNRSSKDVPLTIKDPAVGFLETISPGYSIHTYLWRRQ
Assay: Glucocerebrosidase;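 note: the screen sought inhibitors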
Conditions: purified enzyme, resorufin glucoside fluorescence (screen aimed at inhibitors), 20 min; series mostly up to 77 µM
Outline: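 Wild-type enzyme at 0.2 nM final in 50mM citric acid/KH2PO4, 10mM sodium taurocholate, 0.01% tween-20, pH 5.9, with resorufin beta-D-glucopyranoside at 30 uM final. Compounds titrated, 20 min at RT, red fluorescence read; AC50 from titration.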
Potency is the fitted concentration of half-maximal effect.

Potency, inactive:
O=C(NCc1ccncc1)c1cccc(Cn2cc(Br)cn2)c1 > 76.9 µM, O=C(CCn1c(=O)sc2ccccc21)NCc1ccco1 > 76.9 µM, CCN(CC)CCCN1C(=O)C(O)=C(C(=O)c2ccc(C)o2)C1c1ccco1 (stereo not drawn) > 76.9 µM, Cc1ccc(NC(=O)Cn2nnc(C(=O)NCc3cccs3)c2N)cc1 > 76.9 µM, Cc1ccc(OCCC(=O)Nc2c(C)n(C)n(-c3ccccc3)c2=O)cc1 > 76.9 µM, O=S(=O)(NCc1cccnc1)c1cc(Cl)ccc1Cl > 76.9 µM, CCn1c(COc2ccccc2)nnc1SCC(=O)NC1CCCCC1 > 76.9 µM, COC(=O)Cn1nnc(-c2cccc(OC)c2)n1 > 76.9 µM, COc1ccc(C(=O)COC(=O)CSCc2c(C)noc2C)cc1OC > 76.9 µM, O=C(c1cccc(S(=O)(=O)N2CCCC2)c1)N1CCN(c2ccccc2F)CC1 > 76.9 µM, Cc1[nH]c2ccc(-c3nnc(SCC(=O)c4ccccc4F)o3)cc2c1C > 76.9 µM, CN(C)Cc1cc(CCNC(=O)c2ccc(Cl)cc2)ccc1O, CCc1nnc(NC(=O)CSc2nc3cccnc3n2C2CCCCC2)s1, Cc1cc(C(=O)CSc2nnc(-c3ccccc3)n2-c2ccccc2)c(C)n1-c1ncn[nH]1 > 76.9 µM, O=C(c1sccc1-n1cccc1)N1CCCC1 > 76.9 µM, CC(C)C(OC(=O)c1cc2sccc2n1C)C(=O)NCC1CCCO1 (stereo not drawn) > 76.9 µM, COc1cccc(NC(=O)N2CCN(C(=O)C(Cc3ccc(OC)c(OC)c3)NC(C)=O)CC2)c1 (stereo not drawn) > 76.9 µM, COc1ccc(-c2nnc(NC(=O)c3ccc(S(=O)(=O)N4CCCc5ccccc54)cc3)o2)cc1 > 76.9 µM, CCOc1ccccc1CN1CCN(S(C)(=O)=O)CC1 > 76.9 µM, CCCN(CCC)C(=O)Cn1c(=O)n(CCCCC(=O)NCc2ccco2)c(=O)c2ccccc21 > 76.9 µM, Cc1ccc(-n2nc3c(c2NC(=O)c2ccc4c(c2)OCO4)CSC3)cc1 > 76.9 µM, Cc1noc(C)c1COC(=O)c1cccnc1SCC(=O)Nc1ccc2c(c1)OCO2 > 76.9 µM, CC(=O)N(c1ccccc1)c1c(F)c(F)c(F)c(F)c1F > 76.9 µM, NC(=O)CSc1nnc(CNc2cccc(Cl)c2)n1CCc1ccccc1 > 76.9 µM, Cc1cc(C(=O)CSc2nc3ccccc3c(=O)n2C)c(C)n1Cc1ccc2c(c1)OCO2 > 76.9 µM, Cc1ccc2c(c1)nnn2C1CCN(CC(=O)NCCc2ccccc2)CC1 > 76.9 µM, COC(=O)c1ccc(NC(=O)CN2C(=O)CCC2=O)cc1 > 76.9 µM, Cc1ccc(S(=O)(=O)NCc2cn3ccsc3n2)c(C)c1 > 76.9 µM, Cc1ccsc1C(=O)N1CC(=O)Nc2ccccc21 > 76.9 µM, Cc1cc(C)n(-c2nc(NCC3CCCO3)c3c4c(sc3n2)COC(C)(C)C4)n1 (stereo not drawn) > 76.9 µM, O=C(NCc1ccc2c(c1)OCO2)c1ccc(CS(=O)(=O)c2cccc(C(F)(F)F)c2)o1 > 76.9 µM, CCOC(=O)C(NC(C)=O)(Nc1ccc(S(=O)(=O)Nc2nccs2)cc1)C(F)(F)F (stereo not drawn) > 76.9 µM, CCN(CC)CCCNC(=O)c1nn(-c2ccc(OC)cc2OC)c(=O)c2ccccc12 > 76.9 µM, CC(=O)Nc1cccc(C(=O)Oc2cccc(C)c2)c1O > 76.9 µM, Cc1ccc(CN2C(=O)CCC2C(=O)NCCCN2CCOCC2)cc1 (stereo not drawn) > 76.9 µM, O=C(O)CCCC(=O)Nc1nc2n(n1)C(c1ccc(F)cc1)CC(c1ccc(Cl)cc1)N2 (stereo not drawn) > 76.9 µM, Cc1cc(C)c(NC(=O)Cn2c(=O)n(Cc3ccco3)c(=O)c3ccccc32)c(C)c1 > 76.9 µM, O=C(CN1C(=O)c2ccccc2C1=O)Nc1ccc(S(=O)(=O)NCC2CCCO2)cc1 (stereo not drawn) > 76.9 µM, CCn1c(SCC(=O)N2CCCC2)nc2ccccc2c1=O > 76.9 µM, Nc1ncn(C(=O)c2ccco2)n1 > 76.9 µM, CCOC(=O)c1c(NC(=O)C2CCN(S(=O)(=O)c3cccs3)CC2)sc(C)c1C > 76.9 µM, O=C(NCCc1ccc(Cl)cc1)C1CCN(S(=O)(=O)c2ccc(-n3cnnn3)cc2)CC1 > 76.9 µM, CC(=O)Nc1cc(C(=O)N2CCCC2)ccc1S(=O)(=O)c1ccc(C)cc1 > 76.9 µM, COc1ccccc1NC(=O)CSc1nnc(-c2ccc(C)cc2)o1 > 76.9 µM, Cc1nc2cc(NC(=O)Nc3ccc(N4CCOCC4)cc3)ccc2n1C > 76.9 µM, CCCCn1nc(C(=O)NC2=NCCS2)c2ccccc2c1=O > 76.9 µM, O=C(NCc1ccccn1)C(C(=O)c1ccc(F)cc1)n1ccccc1=O (stereo not drawn) > 76.9 µM, O=C(c1ccccn1)N1CCN(c2ccc(C(F)(F)F)cn2)CC1 > 76.9 µM, COc1cc(C)nc(N(Cc2ccccc2)S(=O)(=O)c2ccccc2)n1 > 76.9 µM, O=C(CN1C(=O)C2(OCCO2)c2ccccc21)c1ccc(Br)cc1 > 76.9 µM, CCOC(=O)C1CCN(C(=O)Cc2cccs2)CC1 > 76.9 µM, Cc1nc(N2CCN(c3ccccc3)CC2)nc2c1C(=O)CC(c1ccccc1)C2 (stereo not drawn) > 76.9 µM, CCOc1cc(/C=C(/C#N)c2ccc(F)cc2)ccc1OCc1ccc(C(=O)O)o1 > 76.9 µM, CCC1CCCCN1C(=O)Nc1cccc(NC(=O)N2CCCCC2CC)c1 (stereo not drawn) > 76.9 µM, Cc1nc(N2CCC(C(N)=O)CC2)c2nnn(Cc3ccccc3)c2n1 > 76.9 µM, CCOC(=O)C1=C(C)NC(SCC(N)=O)=C(C#N)C1c1ccncc1 (stereo not drawn) > 76.9 µM, O=C(CC1C(=O)OCN1C(=O)OCc1ccccc1)OCC(=O)c1ccccc1 (stereo not drawn) > 76.9 µM, O=C(Oc1cccnc1)c1cc2ccccc2oc1=O > 76.9 µM, COC(=O)C(Cc1ccc(O)cc1)NC(=O)CCC(=O)Nc1ccc(S(N)(=O)=O)cc1 (stereo not drawn) > 76.9 µM, COc1ccc(S(=O)(=O)N2CCC(C(=O)Nc3ccccc3C)CC2)c2cccnc12 > 76.9 µM, Cc1oc2c(CN3CCCC3)c(O)ccc2c(=O)c1-c1ccc(Br)cc1, CCN(c1ccccc1)S(=O)(=O)c1ccc2[nH]cc(C(=O)NCCOC)c(=O)c2c1 > 76.9 µM, Cc1ccsc1C(C(=O)NC1CCCCC1)N(C(=O)c1csnn1)C1CC1 (stereo not drawn) > 76.9 µM, Cc1nccn1CC(O)COC1CCCCC1 (stereo not drawn) > 76.9 µM, Cc1ccc(CC(=O)Nc2cccc(C)n2)cc1 > 76.9 µM, O=c1c(C/C=C/c2ccccc2)c(O)nc2n1CCCS2 > 76.9 µM, CCOC(=O)C1=C(N)Oc2c(oc(CO)cc2=O)C1c1c(F)cccc1Cl (stereo not drawn) > 76.9 µM, O=C(CCCNS(=O)(=O)c1ccc(Br)cc1)N1CC[C@@]2(O)CCCC[C@H]2C1 > 76.9 µM, CCOC(=O)c1[nH]c2ccccc2c1NC(=O)c1ccco1 > 76.9 µM, CC(=O)N1CCc2cc(S(=O)(=O)NCCC(=O)N3CCc4ccccc4C3)ccc21 > 76.9 µM, CCOC(=O)CNC(=O)Cn1c(C)cc2ccccc2c1=O > 76.9 µM, O=C1NCC(COCc2ccco2)O1 (stereo not drawn) > 76.9 µM, CCCS(=O)(=O)N1CCC(C(=O)NCc2ccccc2Cl)CC1 > 76.9 µM, Clc1ccccc1-c1nnc2sc(-c3ccc4c(c3)OCO4)nn12 > 76.9 µM, O=C(NCc1ccco1)C1CCCN(S(=O)(=O)c2cccc3nsnc23)C1 (stereo not drawn) > 76.9 µM, CCc1nc(NCCCn2ccnc2)c2oc3ccccc3c2n1 > 76.9 µM, Cc1ccc(C(C(=O)NCc2ccco2)N(CC2CCCO2)C(=O)Cn2nnc3ccccc32)cc1 (stereo not drawn) > 76.9 µM, O=C(CSc1nnc(-c2cccnc2)n1Cc1ccco1)N1CCc2ccccc21 > 76.9 µM, O=C1c2ccccc2CCC1C(O)c1ccccn1 (stereo not drawn) > 76.9 µM, Cc1c(NC(=O)CSc2nnnn2Cc2ccccc2)c(=O)n(-c2ccccc2)n1C > 76.9 µM, O=C(CN(Cc1ccco1)C(=O)CNS(=O)(=O)c1ccc(Cl)cc1)NC1CCCCC1 > 76.9 µM, Cn1c(Sc2nc3ccccc3n2C)nc2ccccc21 > 76.9 µM, COc1cccc(C2CC(C(F)(F)F)n3ncc(C(=O)NCc4ccco4)c3N2)c1 (stereo not drawn) > 76.9 µM, COc1cccc(C2=NOC(C(=O)NCc3ccccn3)C2)c1 (stereo not drawn) > 76.9 µM, O=c1nc2n(c3cc(Cl)c(S(=O)(=O)N4CCOCC4)cc13)CCCCC2 > 76.9 µM, CCN(CC)CCNC(=O)CCc1nn(C)c(=O)c2ccccc12 > 76.9 µM, Cc1cccc(NC(=O)Cn2c(=O)n(C)c3ccccc32)c1 > 76.9 µM, O=C(NCc1cccnc1)c1cc(-c2ccco2)on1 > 76.9 µM
